# In PubChem BioAssay AID588591 (National Center for Advancing Translational Sciences (NCATS), 2011):
# Screen size: about 390,000 compounds; about 4,700 (1.2%) were called active. Inconclusive results, whose numbers are uncertain, are shown with a selection of clear calls. Calls follow the shape of the dose curve; as a rule, active = well fitted inhibition curve with a large enough effect; inconclusive = small, poorly fitted or top-dose-only effect, or another doubt; inactive = no such curve, though single readings can be large or run the other way. Potencies of inconclusive entries are doubtful fits and often do not repeat.
# Biological target: DNA polymerase eta (Homo sapiens) (UniProt Q9Y253)
# Test: qHTS for Inhibitors of Polymerase Eta
# Details: recombinant Pol eta, fluorescent DNA replication assay; series mostly up to 114 µM; activity change, negative = inhibition: at the top concentration
# Procedure, shortened: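 Pol eta at 10 nM preincubated with compounds 15 min at room temperature; reaction started with fluorescent substrate (50 nM final) and read kinetically at 0 and 10 min.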
# % is scaled to controls: 0 for no effect and ±100 for the full control effect; potency is read from the fitted curve at half-maximal effect; tags tell the direction and shape of the fitted curve.
# Sequence of UniProt Q9Y253 (Q9Y253 whole entry, looked up): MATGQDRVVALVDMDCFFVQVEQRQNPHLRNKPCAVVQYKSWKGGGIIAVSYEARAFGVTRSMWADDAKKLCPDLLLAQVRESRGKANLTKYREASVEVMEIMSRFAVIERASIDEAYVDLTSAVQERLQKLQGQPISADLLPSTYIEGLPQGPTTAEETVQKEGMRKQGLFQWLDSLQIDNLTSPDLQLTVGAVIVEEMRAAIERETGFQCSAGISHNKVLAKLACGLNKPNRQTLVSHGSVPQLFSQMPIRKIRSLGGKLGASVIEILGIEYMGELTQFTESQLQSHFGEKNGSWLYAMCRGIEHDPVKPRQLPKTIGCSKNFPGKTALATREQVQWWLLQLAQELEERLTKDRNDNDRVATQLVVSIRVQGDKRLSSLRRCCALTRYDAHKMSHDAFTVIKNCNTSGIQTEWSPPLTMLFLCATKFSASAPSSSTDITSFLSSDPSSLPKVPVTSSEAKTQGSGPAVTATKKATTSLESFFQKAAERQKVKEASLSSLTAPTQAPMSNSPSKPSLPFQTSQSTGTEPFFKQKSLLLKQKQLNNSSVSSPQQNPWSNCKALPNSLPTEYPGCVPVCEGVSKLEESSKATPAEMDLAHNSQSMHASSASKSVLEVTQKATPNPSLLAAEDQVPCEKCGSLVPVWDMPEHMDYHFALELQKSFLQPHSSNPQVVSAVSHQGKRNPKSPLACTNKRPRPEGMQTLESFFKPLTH
SMILES,"activity change, negative = inhibition",Potency
Cc1nc2ccn(Cc3ccco3)c(=O)c2cc1C(=O)NCc1ccccc1F,inactive: 5.53%,
CCOC(=O)NN1C(=O)c2ccccc2NC1c1cccs1 (configuration not stated),,"inconclusive: 89.1 µM [inhibitor, partial curve, poor fit]"
CCCC(=O)NC(c1ccc(C)cc1)c1ccc2cccnc2c1O (configuration not stated),inactive: -10.6%,
OCC1(Cc2cccc(C(F)(F)F)c2)CCN(Cc2cc3ccccc3o2)CC1,,"inconclusive: 35.5 µM [inhibitor, partial curve, poor fit]"
O=c1c(O)c(-c2ccc(O)c(O)c2)oc2cc(O)ccc12,,active: 1.58 µM
COCCN(C(=O)CSc1nc2ccc(Cl)cc2[nH]1)c1c(N)n(Cc2ccccc2)c(=O)[nH]c1=O,,"inconclusive: 35.5 µM [inhibitor, partial curve, poor fit]"
CC(C)C(c1nnnn1C(C)(C)C)N1CCC(Cc2ccccc2)CC1 (configuration not stated),,"inconclusive: 89.1 µM [inhibitor, partial curve, poor fit]"
Cc1c(C)c(C)c2[nH]c(-c3ccc4c(c3)OCO4)nc2c1C,,"inconclusive: 10 µM [inhibitor, partial curve, poor fit]"
O=C(NC1(O)C(=O)c2ccccc2C1=O)c1ccc(C(F)(F)F)cc1,,active: 44.7 µM
O=C(O)c1cccc2c1-c1ccccc1/C2=N\Nc1ccccc1,,"inconclusive: 79.4 µM [inhibitor, partial curve]"
O=C(COc1ccc([N+](=O)[O-])cc1Cl)Nc1ccc2[nH]c(=O)[nH]c2c1,,"inconclusive: 22.4 µM [inhibitor, full curve, poor fit]"
Cc1ccc(C)n1NC(=O)c1ccccc1Cl,,"inconclusive: 25.1 µM [inhibitor, partial curve]"
CCCCSc1cc(=O)n(-c2ccccc2)nc1C(=O)OCC,,"inconclusive: 89.1 µM [inhibitor, single point]"
COC(=O)c1c(NC(NC(=O)c2ccccc2)(C(F)(F)F)C(F)(F)F)sc2c1CCN(C)C2,,"inconclusive: 4.47 µM [inhibitor, full curve, poor fit]"
O=C(CNc1ccccc1)N/N=C/c1cc([N+](=O)[O-])ccc1N1CCCC1,,"inconclusive: 22.4 µM [inhibitor, partial curve, poor fit]"
Oc1[nH]c2ccccc2c1N=Nc1c(F)c(F)c(F)c(F)c1F,,"inconclusive: 35.5 µM [inhibitor, partial curve, poor fit]"
COc1ccc(/C=N/Nc2ncnc3sc4c(c23)CCCC4)cc1O,,"inconclusive: 14.1 µM [inhibitor, full curve, poor fit]"
